Results from PMC4336329 (PLoS ONE, 2015).
Screen size: about 310,000 compounds; about 14,000 (4.5%) showed an effect of 50% or more. The effect is printed as a negative number. Some of the results follow.

Molecular target: human ether-à-go-go-related gene (hERG) potassium channel (human, UniProt Q12809)
Assay: primary screen, population patch clamp on CHO cells stably expressing hERG
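Further: peak tail current of the secondary pulse compared with the same well before compound.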

Sequence of human ether-à-go-go-related gene (hERG) potassium channel (Q12809 whole entry, looked up): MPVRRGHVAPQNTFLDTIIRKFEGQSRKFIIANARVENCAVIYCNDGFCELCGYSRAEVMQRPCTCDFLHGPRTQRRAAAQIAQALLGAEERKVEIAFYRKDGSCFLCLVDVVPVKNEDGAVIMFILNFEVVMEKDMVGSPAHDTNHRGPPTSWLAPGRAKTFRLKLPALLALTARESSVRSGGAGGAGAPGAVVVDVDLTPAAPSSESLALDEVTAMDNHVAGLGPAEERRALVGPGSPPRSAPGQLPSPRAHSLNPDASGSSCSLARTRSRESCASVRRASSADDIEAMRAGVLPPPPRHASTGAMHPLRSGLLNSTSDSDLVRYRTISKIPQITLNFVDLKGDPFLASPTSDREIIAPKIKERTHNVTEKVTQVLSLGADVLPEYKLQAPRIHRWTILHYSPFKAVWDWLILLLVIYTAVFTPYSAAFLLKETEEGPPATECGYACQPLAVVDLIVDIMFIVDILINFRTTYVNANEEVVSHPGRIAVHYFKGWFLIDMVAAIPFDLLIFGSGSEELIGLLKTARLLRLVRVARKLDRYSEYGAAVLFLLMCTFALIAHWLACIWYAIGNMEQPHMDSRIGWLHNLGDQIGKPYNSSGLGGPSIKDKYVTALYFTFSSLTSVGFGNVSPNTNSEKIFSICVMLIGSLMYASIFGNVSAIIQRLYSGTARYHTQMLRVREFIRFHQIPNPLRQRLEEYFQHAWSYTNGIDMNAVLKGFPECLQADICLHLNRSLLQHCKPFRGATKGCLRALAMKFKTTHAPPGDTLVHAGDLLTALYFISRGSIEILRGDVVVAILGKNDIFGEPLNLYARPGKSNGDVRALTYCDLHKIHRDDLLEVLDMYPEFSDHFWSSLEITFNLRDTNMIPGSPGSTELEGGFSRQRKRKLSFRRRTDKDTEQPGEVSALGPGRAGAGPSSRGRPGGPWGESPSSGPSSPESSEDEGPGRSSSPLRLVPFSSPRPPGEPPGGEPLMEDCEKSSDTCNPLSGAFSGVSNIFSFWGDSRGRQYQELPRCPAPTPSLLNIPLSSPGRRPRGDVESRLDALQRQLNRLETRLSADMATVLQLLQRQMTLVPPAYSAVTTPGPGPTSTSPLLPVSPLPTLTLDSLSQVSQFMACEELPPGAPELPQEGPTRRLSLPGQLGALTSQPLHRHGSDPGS

| SMILES | hERG current change (%, negative = inhibition) at 10uM [%] |
| --- | --- |
| COCCCNC(=O)Cn1c(=O)oc2cc(S(=O)(=O)N3CC(C)CC(C)C3)ccc21 (stereo not drawn) | 9.37 |
| CC1(C)CC(=O)/C(=C(\O)Cc2ccccc2)C(=NCCCCCC(=O)O)C1 | -13.3 |
| CC(C)N=Cc1c(O)[nH]c2ccccc12 | 2.82 |
| CC(C)CN(C(=O)COC(=O)c1ccccn1)c1c(N)n(Cc2ccccc2)c(=O)[nH]c1=O | -12.6 |
| Cc1nc(NS(=O)(=O)c2ccccc2)sc1C(=O)N/N=C/c1ccccc1 | -2 |
| CCN(CC)c1ccc(/C=N/NC(=O)c2cc3ccccc3[nH]2)cc1 | 2.97 |
| O=C(c1ccco1)N1CCC(c2nc(-c3ccccc3Cl)no2)CC1 | -11.5 |
| Cc1ccccc1N(C(=O)Cc1c[nH]c2ccccc12)C(C(=O)NC1CCCCC1)c1ccco1 (stereo not drawn) | 0.806 |
| OC(CNC1CCCCC1)CNC1CCCCC1 | 30.4 |
| O=[N+]([O-])c1ccccc1CSc1ccccn1 | 11.4 |
| Cc1ccc(N2CCN(c3ccc(NC(=O)CCC(=O)O)cc3)CC2)cc1 | 19.6 |
| CCOC(=O)C1(CC2CC2)CCN(S(=O)(=O)C[C@]23CC[C@H](CC2=O)C3(C)C)CC1 | -0.149 |
| CCOc1ccc(Oc2nc(C)cc(OC)n2)nn1 | -2.43 |
| CCN(CC)CCN(C(=O)c1ccc2ccccc2c1)c1nc2cc3c(cc2s1)OCO3.Cl | -38.6 |
| Cc1c(CCO)c(=O)[nH]n1S(=O)(=O)c1ccc(F)cc1 | 24.4 |
| COc1cc2c(cc1OC)-c1cc(NC3CCCCCC3)nc(=O)n1CC2 | -28.8 |
| O=C(Nc1ccc2c(c1)C(=O)NC2=O)c1ccc(S(=O)(=O)N2CCCC2)cc1 | 11.5 |
| Cc1cccc(C)c1NC(=O)CCCSc1nnnn1C | 10.8 |
| C=CCN1CCN(C(=O)c2ccc(-c3ccccc3)cc2)CC1 | -12.6 |
| C=CCSc1n[nH]c(-c2ccc(OCCC)cc2)n1 | -0.572 |
| CC1C(=O)CCC1(C(=O)O)c1ccccc1 (stereo not drawn) | 13.2 |
| Cn1c(N)c(C(=O)COC(=O)[C@H](Cc2ccccc2)N2C(=O)c3ccccc3C2=O)c(=O)n(C)c1=O | 5.45 |

| SMILES | hERG current change (%, negative = inhibition) at 10uM [%] |
| --- | --- |
| CCCOc1ccc(CN(CCC#N)C(=S)NC(=O)c2ccccc2)cc1 | 3.28 |
| Cc1ccccc1C(=O)Nc1ccnn1C1CCN(Cc2ccccn2)CC1 | -33.9 |
| O=C(NCc1ccncc1)c1cccc(NS(=O)(=O)c2ccc(F)c(F)c2)c1 | -20.9 |
| S=C(NCCN1CCOCC1)Nc1ccc(Cl)cc1 | 5.48 |
| Cc1cc(Cl)cc2sc(NC(=O)C3CC3)nc12 | -1.02 |
| CCOC(=O)c1ccc(N2C(=O)C(O)=C(C(C)=O)C2c2ccc([N+](=O)[O-])cc2)cc1 (stereo not drawn) | 22.2 |
| Cc1nc(-c2ccc(S(=O)(=O)N3CCN(Cc4ccccc4)CC3)s2)cs1 | 5.81 |
| CCN1C(C(=O)c2ccccc2)=C(Nc2ccccc2C)c2ccccc2S1(=O)=O | -4.84 |
| CC1(C)Cc2nc3sc4c(=O)n(CC(N)=O)cnc4c3cc2CO1 | 3.05 |
| O=C(COC(=O)C1CCN(c2ccc(C(F)(F)F)cn2)CC1)c1ccccc1Cl | 7.24 |
| CCOc1ccc(CNC(=O)CCC(=O)N2CCSc3ccccc32)cc1 | -18.2 |
| CC(NC(=O)CCc1nnc(C2(c3ccc(Cl)cc3)CCC2)o1)C1CC1 (stereo not drawn) | -3.59 |
| CSc1ccccc1NS(=O)(=O)c1ccccc1 | 2.62 |
| O=C(c1ccccc1)N1CCN(S(=O)(=O)c2ccc(Cl)c(C(F)(F)F)c2)CC1 | -1.61 |
| CC[n+]1c(/C=C/c2ccc(N(C)C)cc2)ccc2ccccc21.[I-] | -72.9 |
| Cc1c(NC(=O)c2cccc(-c3cc4ccccc4oc3=O)c2)cccc1-c1nc2ncccc2o1 | -39.9 |
| Cn1c(C(=O)c2ccccc2[N+](=O)[O-])nc2ccccc21 | -26.6 |
| O=C1C=CC(=O)N1c1ccc(O)cc1 | 3.01 |
| CCOC(=O)c1csc(N/N=C2\CCc3ccccc32)n1 | 9.37 |
| COc1ccc(NC(=O)N2CCC(O)(c3cccnc3)CC2)c(OC)c1 | 14.6 |
| O=C(Nc1ccncc1NC(=O)c1cccc([N+](=O)[O-])c1)c1cccc([N+](=O)[O-])c1 | -14.5 |
| COc1ccc(CN2C(=NC(=O)CCc3ccccc3)SC3CS(=O)(=O)CC32)cc1 (stereo not drawn) | 3.85 |

| SMILES | hERG current change (%, negative = inhibition) at 10uM [%] |
| --- | --- |
| O=C(Nc1ccccc1SCC1CSc2nc3ccccc3c(=O)n21)c1ccccc1Cl (stereo not drawn) | -70.5 |
| Cc1ccc(-c2ccc(=O)n(CC(=O)NCCN3C(C)CCCC3C)n2)cc1 (stereo not drawn) | 0.00388 |
| CC(C)NCCCCOc1ccccc1-c1ccccc1.O=C(O)C(=O)O | -32.9 |
| O=C(NCCN1CCOCC1)C1CC(=O)N(c2ccc(F)c(Cl)c2)C1 (stereo not drawn) | -3.45 |
| Cc1cccc(/C=C2\Sc3ccc(C(=O)N4CCOCC4)cc3N(C)C2=O)c1 | -40.7 |
| COc1ccc(C(=O)Cc2ccc(OC)c(OC)c2)c(OC)c1 | -0.547 |
| O=c1c2c(n3cnnc3n1C1CCCCC1)-c1ccccc1CC21CCCCC1 | 6.54 |
| Cc1cccc(CNS(=O)(=O)c2csc(C(N)=O)c2)c1 | 20 |
| O=C(Nc1ccc(S(=O)(=O)NCc2cccnc2)cc1)c1ccccc1Cl | 8.33 |
| CCN(CC)C(=O)C(=O)c1cc(C)n(-c2ccc(F)cc2)c1C | 10.9 |
| CCCCCC(=O)Nc1nc(C)c(-c2csc(Nc3ccc(Cl)cc3)n2)s1 | 6.11 |
| O=C1N(c2nncs2)CCN1[N+](=O)[O-] | 17 |
| CCCOc1cccc(C(=O)N(Cc2ccccc2)C2CCS(=O)(=O)C2)c1 (stereo not drawn) | -1.09 |
| COc1ccc(C2C3=C(CCCC3=O)N(CC(=O)O)C3=C2C(=O)CCC3)cc1Cl | 23.8 |
| C/C(=N\NC(=O)c1ccc([N+](=O)[O-])cc1)c1cccc([N+](=O)[O-])c1 | 5.82 |
| CC1CCCCC1NC(=O)COn1nnc2ccc(Cl)cc21 (stereo not drawn) | -14.3 |
| CCC1Sc2ccc(S(=O)(=O)CCC(=O)Nc3ccccc3Cl)cc2NC1=O (stereo not drawn) | 11.1 |
| Cc1ccc(NC(=O)Nc2nnc(-c3ccccc3)o2)cc1 | 16.9 |
| CC1CCN(S(=O)(=O)N2CCCC(C(=O)NCc3ccccc3Cl)C2)CC1 (stereo not drawn) | -5.93 |
| Cc1cccc(Cc2cnc(N3C(=N)SC(C)C3=O)s2)c1 (stereo not drawn) | -5.9 |
| CCC1CN(C(=O)N2CCC(C(=O)NCCc3ccccc3OC)CC2)c2ccccc2O1 (stereo not drawn) | -15.2 |
| CCCn1c(SCC(=O)Nc2cccc(NC(C)=O)c2)nnc1C(C)C | 8.38 |

| SMILES | hERG current change (%, negative = inhibition) at 10uM [%] |
| --- | --- |
| CC(NS(=O)(=O)c1ccc(Cl)cc1)C(=O)NCc1ccco1 (stereo not drawn) | -5.76 |
| Cc1cc(OCC(=O)N2CCC(C(=O)O)(c3ccccc3)CC2)c2c(C)c(C)c(=O)oc2c1 | -0.248 |
| COc1cccc(OCc2nnc(SCC(=O)N3c4ccccc4Sc4ccc(Cl)cc43)o2)c1 | 13.8 |
| O=C(NCc1ccccn1)Nc1ccc(Cl)c(Cl)c1 | -18.6 |
| Cc1cc(SCC(=O)NCC2CCCO2)nc2ccccc12 (stereo not drawn) | -10.1 |
| c1ccc2c(C3=NNC(=NC4CCCCC4)SC3)c[nH]c2c1 | -6.92 |
| CC1CCN(C(=O)c2ccc([N+](=O)[O-])o2)CC1 | 4.53 |
| CCOc1cc2[nH]c(=O)n(CCCCCC(=O)NC3CCCC3)c(=O)c2cc1OCC | -0.581 |
| COCCOC(=O)C1=C(C)Nc2ncnn2C1c1ccccc1 (stereo not drawn) | 1.22 |
| CCOc1ccc2[nH]c(=O)c(CN(CCO)C(=O)c3ccc(F)cc3)cc2c1 | 8.24 |
| CC(O)C(NS(=O)(=O)c1ccc(Cl)cc1)C(=O)OCC(=O)c1c[nH]c2ccccc12 (stereo not drawn) | 11.7 |
| Cc1cc(OCC(=O)NCCCN2CCOCC2)c2c(C)cc(=O)oc2c1 | -10.8 |
| CCC(C)NC(=O)C1CCN(c2nc(C)cc(C)n2)CC1 (stereo not drawn) | 1.92 |
| O=S(=O)(Nc1cccc(-c2ccc3nncn3n2)c1)c1cccs1 | -2.37 |
| COCc1cc(C)nc2sc(C(=O)Nc3ccc(C(=O)OC)cc3)c(N)c12 | 6.97 |
| CCCCN(CC)S(=O)(=O)c1ccc2c(c1)CCCN2C(C)=O | -43.3 |
| CN(C(=O)c1ccncc1)c1nnc(-c2cnccn2)s1 | 7.23 |
| CCOc1ccc(N2CC(C(=O)Nc3ccc(OC)c(S(=O)(=O)N4CCCCC4)c3)CC2=O)cc1 (stereo not drawn) | 4.22 |
| COc1ccc(OC)c(CN2CCN(C(=O)c3cccs3)CC2)c1.O=C(O)C(=O)O | -41.1 |
| COc1ccc(NC(=O)c2cccc(N3C(=O)C4C5C=CC(C5)C4C3=O)c2)cc1 (stereo not drawn) | 6.74 |
| CC(=O)OCC1=C(C(=O)O)N2C(=O)C(NC(=O)c3ccc(F)cc3)C2SC1 (stereo not drawn) | 8.23 |
